Experimental data from US20100204144A1, “USE OF THE PEPTIDES MAIPPKKNQDK (COW KAPPA CASEIN 106-116) AND/OR YGFQNA (SERORPHIN) AS THERAPEUTIC AGENTS” (priority 2007, published 2010).
Where no end group is shown, it is not given here.

Tested on: RAW 264.7 (Mouse leukaemic monocyte macrophage cell line) cells
Assay: Phagocytosis assay (Fluorescein-labeled Escherichia coli, flow cytometry)
Type: cell-based
Conditions: 10 micrograms per ml; RAW 264.7, 30 min pre-incubation, 60 min ingestion

Substance	increase on the phagocytic activity of murine macrophages
Tyr-Gly-Phe-Gln-Asn-Ala-OH (YGFQNA-OH) [peptide 2]	22.9%
Met-Ala-Ile-Pro-Pro-Lys-Lys-Asn-Gln-Asp-Lys-OH (MAIPPKKNQDK-OH) [peptide 1]	22.9%
